Data published in patent KR20220059888A (dated 2022).

Tests used:
개 Tie2 단백질 = target: T1, 개 Tie2 단백질 (개 (dog), UniProt A0A8I3S0B4 27-1128); assay: flow cytometry; HEK293T cells transfected with dog Tie2
T1 construct: whole, on cells; also called 다른 종 유래의 Tie2 단백질
T1 sequence: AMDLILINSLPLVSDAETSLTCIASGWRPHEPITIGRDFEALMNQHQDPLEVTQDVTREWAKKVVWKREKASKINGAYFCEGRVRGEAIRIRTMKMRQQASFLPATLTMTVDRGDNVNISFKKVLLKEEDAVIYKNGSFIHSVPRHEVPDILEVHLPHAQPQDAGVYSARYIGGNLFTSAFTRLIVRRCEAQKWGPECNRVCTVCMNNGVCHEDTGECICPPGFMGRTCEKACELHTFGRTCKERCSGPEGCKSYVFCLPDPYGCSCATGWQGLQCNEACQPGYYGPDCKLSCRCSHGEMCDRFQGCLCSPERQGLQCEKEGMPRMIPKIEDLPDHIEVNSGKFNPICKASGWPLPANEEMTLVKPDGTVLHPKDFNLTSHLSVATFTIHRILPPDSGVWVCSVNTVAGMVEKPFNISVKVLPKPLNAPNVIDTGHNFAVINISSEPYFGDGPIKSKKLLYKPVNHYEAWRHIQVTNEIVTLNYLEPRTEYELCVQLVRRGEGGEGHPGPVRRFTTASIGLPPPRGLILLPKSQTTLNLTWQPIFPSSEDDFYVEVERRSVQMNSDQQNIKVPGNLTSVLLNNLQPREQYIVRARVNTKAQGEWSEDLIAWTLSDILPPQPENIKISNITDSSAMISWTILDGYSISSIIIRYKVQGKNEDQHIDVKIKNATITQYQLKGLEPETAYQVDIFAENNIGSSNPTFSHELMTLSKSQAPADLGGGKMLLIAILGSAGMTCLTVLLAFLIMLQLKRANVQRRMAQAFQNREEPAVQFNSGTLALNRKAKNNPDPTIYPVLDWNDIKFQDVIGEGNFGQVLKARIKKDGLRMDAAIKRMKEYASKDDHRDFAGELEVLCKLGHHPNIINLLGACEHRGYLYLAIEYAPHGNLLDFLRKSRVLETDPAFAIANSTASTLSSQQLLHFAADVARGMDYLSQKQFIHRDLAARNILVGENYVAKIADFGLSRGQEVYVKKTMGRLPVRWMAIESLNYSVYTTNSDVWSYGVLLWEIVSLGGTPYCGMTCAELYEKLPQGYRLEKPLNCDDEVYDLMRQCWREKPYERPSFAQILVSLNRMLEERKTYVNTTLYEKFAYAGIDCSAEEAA

랫 Tie2 단백질 = target: T2, 랫 Tie2 단백질 (랫 (rat), UniProt A0ABK0L6J5 19-1116); assay: flow cytometry; HEK293T cells transfected with rat Tie2
T2 construct: whole, on cells; also called 다른 종 유래의 Tie2 단백질
T2 sequence: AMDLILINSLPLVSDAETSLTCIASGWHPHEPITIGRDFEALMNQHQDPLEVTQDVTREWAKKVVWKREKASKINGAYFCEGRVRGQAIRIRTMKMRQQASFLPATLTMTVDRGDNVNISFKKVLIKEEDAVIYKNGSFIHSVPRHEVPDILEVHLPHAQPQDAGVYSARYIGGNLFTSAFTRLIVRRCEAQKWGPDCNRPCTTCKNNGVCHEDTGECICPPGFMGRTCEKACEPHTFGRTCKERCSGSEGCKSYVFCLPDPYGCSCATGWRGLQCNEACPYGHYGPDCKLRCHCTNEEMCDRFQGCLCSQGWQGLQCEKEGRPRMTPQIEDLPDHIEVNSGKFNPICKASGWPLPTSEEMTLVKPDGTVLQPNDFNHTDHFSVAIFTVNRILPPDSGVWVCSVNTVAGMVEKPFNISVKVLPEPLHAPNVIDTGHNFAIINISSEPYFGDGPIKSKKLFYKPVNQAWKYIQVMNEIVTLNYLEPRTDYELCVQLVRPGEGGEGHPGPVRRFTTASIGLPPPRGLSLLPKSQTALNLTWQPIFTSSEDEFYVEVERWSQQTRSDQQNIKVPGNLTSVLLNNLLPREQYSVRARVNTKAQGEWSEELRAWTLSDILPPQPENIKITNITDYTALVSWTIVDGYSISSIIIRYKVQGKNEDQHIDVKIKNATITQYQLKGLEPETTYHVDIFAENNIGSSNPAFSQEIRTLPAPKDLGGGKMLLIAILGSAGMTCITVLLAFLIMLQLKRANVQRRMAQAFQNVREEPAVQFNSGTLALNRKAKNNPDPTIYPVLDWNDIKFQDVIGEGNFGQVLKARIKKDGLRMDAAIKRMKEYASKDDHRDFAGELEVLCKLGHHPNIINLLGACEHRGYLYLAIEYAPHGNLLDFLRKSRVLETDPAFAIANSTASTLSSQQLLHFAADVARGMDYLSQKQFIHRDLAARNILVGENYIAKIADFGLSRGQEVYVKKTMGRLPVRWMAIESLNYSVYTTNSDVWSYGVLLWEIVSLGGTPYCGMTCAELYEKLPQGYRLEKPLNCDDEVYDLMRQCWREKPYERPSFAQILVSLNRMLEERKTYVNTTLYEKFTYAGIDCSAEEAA

마우스 Tie2 단백질 = target: T3, 마우스 Tie2 단백질 (마우스 (mouse), UniProt Q02858 23-1122); assay: flow cytometry; HEK293T cells transfected with mouse Tie2
T3 construct: whole, on cells; also called 다른 종 유래의 Tie2 단백질
T3 sequence (looked up): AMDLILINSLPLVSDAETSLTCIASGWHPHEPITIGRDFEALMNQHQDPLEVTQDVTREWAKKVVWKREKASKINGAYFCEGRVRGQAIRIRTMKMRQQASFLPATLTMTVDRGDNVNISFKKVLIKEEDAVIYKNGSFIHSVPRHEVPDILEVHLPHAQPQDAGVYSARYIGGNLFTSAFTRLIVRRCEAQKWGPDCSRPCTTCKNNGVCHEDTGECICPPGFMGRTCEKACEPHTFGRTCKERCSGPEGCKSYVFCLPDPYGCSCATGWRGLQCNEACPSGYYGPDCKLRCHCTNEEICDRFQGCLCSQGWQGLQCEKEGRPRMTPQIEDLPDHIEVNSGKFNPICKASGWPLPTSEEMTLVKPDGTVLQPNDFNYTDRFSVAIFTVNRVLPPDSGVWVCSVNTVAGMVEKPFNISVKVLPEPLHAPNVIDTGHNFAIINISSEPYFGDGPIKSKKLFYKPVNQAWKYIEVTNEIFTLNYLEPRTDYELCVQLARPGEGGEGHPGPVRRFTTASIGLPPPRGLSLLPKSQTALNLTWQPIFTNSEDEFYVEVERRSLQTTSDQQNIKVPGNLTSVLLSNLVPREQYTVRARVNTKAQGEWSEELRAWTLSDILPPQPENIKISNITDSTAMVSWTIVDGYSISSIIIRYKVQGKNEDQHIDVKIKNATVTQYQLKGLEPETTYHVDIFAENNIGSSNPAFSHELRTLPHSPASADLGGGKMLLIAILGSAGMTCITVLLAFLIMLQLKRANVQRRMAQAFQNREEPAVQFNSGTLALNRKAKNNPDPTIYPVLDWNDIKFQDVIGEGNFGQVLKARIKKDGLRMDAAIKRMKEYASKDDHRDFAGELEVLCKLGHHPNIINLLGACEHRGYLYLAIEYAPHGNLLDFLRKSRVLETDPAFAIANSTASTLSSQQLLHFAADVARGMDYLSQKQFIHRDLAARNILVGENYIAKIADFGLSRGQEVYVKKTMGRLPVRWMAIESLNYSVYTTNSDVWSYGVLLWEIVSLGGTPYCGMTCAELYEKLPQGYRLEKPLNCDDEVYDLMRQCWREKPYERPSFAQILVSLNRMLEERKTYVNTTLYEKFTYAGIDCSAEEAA

인간 Tie2-Fc 재조합 단백질 = target: T4, 인간 Tie2-Fc 재조합 단백질 (인간 (human), UniProt Q02763 23-748, limits assumed); assay: BLI (Octet K2); human Tie2-Fc immobilised on AR2G tip; antibody 30-1.63 nM; global fit
T4 construct: Human Tie2-Fc recombinant protein, coated in ELISA and immobilised in BLI; also called 인간 Tie2-Fc 단백질; 항원; not shown: Fc part

B1: Ang1mab1 (antibody, human IgG1, kappa)
heavy: QVQLVQSGGGVVQPGRSLRLSCAASGLTFSNYAMHWVRQAPGKGLEWVAVISYDGENKYYADSVKGRFTISRDNSKNMLQLQMNRLRSEDTAVYYCATPKGGALEIWGQGTVITVSS[sequence of human IgG1 constant region omitted]
light: DIQMTQSPDSLAVSLGERATINCKSSQSVLYSSNNKNYLAWYQQKPGQPPNLLMYWASTRESGVPDRFSGSGSGTDFTLTISSLQAEDVAVYYCQQYYSAPITFGQGTRLEIKRTVAAPSVFIFPPSDEQLKSGTASVVCLLNNFYPREAKVQWKVDNALQSGNSQESVTEQDSKDSTYSLSSTLTLSKADYEKHKVYACEVTHQGLSSPVTKSFNRGEC
notes: Its matched control is called IgG1 control; also called 제1 기본 항체; 기본 항체(Ang1mab1)
- binding result (개 Tie2 단백질): no binding (tested: 5-g/ml (so in the source))
- binding result (랫 Tie2 단백질): no binding (tested: 5-g/ml (so in the source))
- binding result (마우스 Tie2 단백질): no binding (tested: 5-g/ml (so in the source))
- Kd (인간 Tie2-Fc 재조합 단백질): 0.476 nM
- koff (인간 Tie2-Fc 재조합 단백질): 4.62e-05 s⁻¹
